Source: PubChem BioAssay AID1721 (National Center for Advancing Translational Sciences (NCATS), 2009)
Among all 290,000 compounds or so, about 1,100 (0.38%) were called active. The inconclusive results got no clear call from the source; some entries with a clear call stand among them for comparison. Calls come from the whole dose curve; as a rule, active = well fitted inhibition curve with a large enough effect; inconclusive = small, poorly fitted or top-dose-only effect, or another doubt; inactive = no such curve, though single readings can be large or run the other way. Where the call is inconclusive, the potency comes from a doubtful curve fit.

These molecules were tested against Pyruvate kinase (Leishmania mexicana) (UniProt Q27686) (assay: qHTS Assay for Inhibitors of Leishmania Mexicana Pyruvate Kinase (LmPK)). Details: purified LmPK, Kinase-Glo ATP luminescence, 1 h; series mostly up to 57.5 µM.
In short: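 0.1 nM LmPK, 0.5 mM PEP, 0.1 mM ADP; 50 mM imidazole pH 7.2, 7 mM MgCl2, 50 mM KCl; 1 h RT. Kinase-Glo luminescence readout, normalized to no-enzyme (full inhibition) and uninhibited wells.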
Potency is the fitted concentration of half-maximal effect; tags give direction and shape of the fitted curve.

Chain of UniProt Q27686 (Q27686 whole entry, looked up): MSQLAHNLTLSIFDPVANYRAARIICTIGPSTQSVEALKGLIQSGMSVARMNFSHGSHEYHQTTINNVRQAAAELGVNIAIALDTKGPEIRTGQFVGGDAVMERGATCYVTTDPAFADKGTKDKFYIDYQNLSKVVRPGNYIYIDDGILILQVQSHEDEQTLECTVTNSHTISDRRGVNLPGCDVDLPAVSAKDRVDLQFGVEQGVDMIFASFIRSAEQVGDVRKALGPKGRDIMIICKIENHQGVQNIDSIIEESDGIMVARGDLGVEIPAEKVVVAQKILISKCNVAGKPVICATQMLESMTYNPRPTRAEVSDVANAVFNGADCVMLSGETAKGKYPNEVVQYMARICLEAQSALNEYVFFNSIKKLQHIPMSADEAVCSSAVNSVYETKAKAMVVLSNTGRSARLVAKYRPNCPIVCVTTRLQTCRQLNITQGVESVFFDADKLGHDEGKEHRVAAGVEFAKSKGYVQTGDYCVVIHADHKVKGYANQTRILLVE

Row | Structure (SMILES) | Potency
1 | CCOC(=O)C1=C(Cc2ccc(F)cc2)C(=O)c2ccccc2C1=O | inconclusive: 25.1 µM [falling, partial curve]
2 | Cc1cnc(NC(=O)CSc2ccccc2)s1 | inactive
3 | Cc1ccc(C(=O)/C=C/c2ccc3c(c2)OCO3)o1 | inconclusive: 12.6 µM [falling, partial curve]
4 | Cc1cccc(NC(=O)c2ccccc2NC(=O)C2CCCCC2)c1C | inconclusive: 39.8 µM [falling, single point]
5 | Cc1ccc(-n2[nH]c(C)c(/C=N/Nc3ccc([N+](=O)[O-])cc3[N+](=O)[O-])c2=O)cc1 | inconclusive: 14.1 µM [falling, partial curve]
6 | CCCOc1ccc(CCc2n[nH]c(=S)n2Cc2ccccc2)cc1 | inconclusive: 20 µM [falling, single point]
7 | O=C(O/N=C1/CCCc2occc21)c1ccccc1 | active: 12.6 µM
8 | Cc1ccc(CCCNC(=O)C2CCC(=O)N(Cc3cccc(F)c3)C2)cc1 (configuration not stated) | inactive
9 | C#CC1(NC(=O)NC(C)(C)C)CCCCC1 | inconclusive: 31.6 µM [falling, single point]
10 | O=C(/C=C/c1ccc(O)cc1)c1ccccc1 | active: 12.6 µM
11 | Cc1ccc(-c2cc(C(=O)NC3=NCCS3)c3cc(Br)ccc3n2)o1 | inconclusive: 28.2 µM [falling, partial curve]
12 | Cc1ccc(-c2nnc(Nc3ccccc3)o2)cc1 | active: 14.1 µM
13 | CSc1ccc(/C=N/NC(=O)c2cccc(O)c2)cc1 | active: 8.91 µM
14 | CCOC(=O)c1ccc2nc(NC(=O)c3cccs3)sc2c1 | inconclusive: 12.6 µM [falling, partial curve]
15 | Cc1cc(C)c(O)c(N)c1 | inactive
16 | Fc1ccc(-c2nc(-c3cnccn3)no2)c(Cl)c1 | inconclusive: 8.91 µM [falling, partial curve]
17 | O=C(/C=C/c1cccs1)N1CCCCC1 | inconclusive: 22.4 µM [falling, partial curve]
18 | O=C(Nc1ccc2c(c1)OCCO2)c1cccs1 | inconclusive: 15.8 µM [falling, partial curve]
19 | Cc1cc(Cl)ccc1C(=O)C1CCCN(C(=O)c2ccoc2)C1 (configuration not stated) | inactive
20 | CN(C(=O)CCn1c(=S)oc2ccccc21)c1ccc(F)cc1 | inactive
21 | COc1ccc2nc3cc(Cl)ccc3c(Nc3cc(CN4CCCC4)c(O)c(CN4CCCC4)c3)c2n1 | inconclusive: 22.4 µM [falling, partial curve]
22 | CN=c1scc(-c2cccs2)n1/N=C/c1ccc(O)c(O)c1O | inconclusive: 28.2 µM [falling, partial curve]
23 | CCCCOC(=O)c1ccc(NC(=O)c2ccccc2OC)cc1 | inactive
24 | COc1ccc(/C=N/c2nc3ccccc3n2C)cc1OC | inconclusive: 17.8 µM [falling, partial curve]
25 | COc1ccc(-n2c(=S)[nH]c3ccccc32)cc1 | inconclusive: 31.6 µM [falling, single point]
26 | CCOc1ccc(-c2nnn(CC(=O)Nc3cccc(OC)c3)n2)cc1OCC | inactive

Row | Structure (SMILES) | Potency
27 | COc1cccc(NC(=O)Nc2ccc3c(c2)nc(C)n3C)c1 | inconclusive: 28.2 µM [falling, partial curve]
28 | COC(CNC(=O)CCc1c(C)nc2c(-c3ccccc3)c(C)nn2c1C)OC | inconclusive: 5.62 µM [falling, single point]
29 | O=C(/C=C1\SC(=O)NC1=O)Nc1ccc(C(=O)O)cc1 | inconclusive: 25.1 µM [falling, partial curve]
30 | O=C(O)[C@H](Cc1ccccc1)N1C(=O)c2c(Cl)c(Cl)c(Cl)c(Cl)c2C1=O | inactive
31 | COc1ccc(OC)c(N/C=C/C(=O)c2ccccc2)c1 | inconclusive: 25.1 µM [falling, single point]
32 | NC(=S)Cc1nc(-c2ccccc2)cs1 | inactive
33 | Cc1ccc(NC(=O)c2ccc(-n3cccn3)c([N+](=O)[O-])c2)cc1C | inactive
34 | Cc1ccc([N+](=O)[O-])c(OCCN2CCCCCC2)c1 | inactive
35 | Cc1ccc(NC(=O)C2CCCN(c3ncccn3)C2)cc1F (configuration not stated) | inactive
36 | O=C(Nc1nc2ccccc2s1)C1=NN(c2ccccc2)C(=O)CC1 | inactive
37 | O=C(Nc1ccc(-c2cn3ccsc3n2)cc1)C1CCCC1 | inconclusive: 15.8 µM [falling, partial curve]
38 | Cn1c(-c2sc3cc(C(F)(F)F)cnc3c2-c2ccccc2)n[nH]c1=S | inconclusive: 35.5 µM [falling, single point]
39 | COCCN(C(=O)CCc1nnc(CCc2c[nH]c3ccccc23)o1)C(C)C | inactive
40 | O=C(Cc1ccccc1)N/N=C/c1ccc(S(=O)(=O)O)o1 | inactive
41 | COc1ccc(C(=O)Nc2ccccc2C(=O)N/N=C/c2ccco2)cc1 | active: 25.1 µM
42 | COCC(=O)Nc1nc2ccc(C)cc2s1 | inconclusive: 22.4 µM [falling, partial curve]
43 | c1ccc2sc(-c3ccc4c(c3)OCO4)nc2c1 | active: 10 µM
44 | S=c1[nH]ncn1NCc1ccc(Cl)cc1Cl | inconclusive: 28.2 µM [falling, partial curve]
45 | O=C(Nc1ccc2c(c1)OCO2)c1cccc(F)c1 | inconclusive: 20 µM [falling, partial curve]
46 | N#CCSc1ccc(-c2nc3ccccc3[nH]2)cn1 | active: 25.1 µM
47 | COc1ccc(-n2cc(-c3ccc(OC)c(OC)c3)[nH]c2=S)cc1 | inconclusive: 7.94 µM [falling, full curve]
48 | COc1cccc(OCc2nc3ccccc3[nH]2)c1 | inactive
49 | O=C(O)c1cccc(COc2ccc3c(c2)CCC3)c1 | inconclusive: 14.1 µM [falling, partial curve]
50 | O=C(Nc1nc(-c2cccs2)cs1)C1=COCCO1 | inconclusive: 22.4 µM [falling, partial curve]
51 | CCN(CC)C(=O)c1ccc(NC(=O)Nc2ccccc2F)cc1 | inconclusive: 20 µM [falling, partial curve]
52 | Cc1cc(N/C=C/C(=O)c2cccs2)ccc1F | inconclusive: 10 µM [falling, partial curve]
